Laboratory results from PubChem BioAssay AID485294 (National Center for Advancing Translational Sciences (NCATS), 2010).
Screen size: about 370,000 compounds; about 150 (0.041%) were called active. Inconclusive results, whose numbers are uncertain, are shown with a selection of clear calls. Calls follow the shape of the dose curve; as a rule, active = well fitted inhibition curve with a large enough effect; inconclusive = small, poorly fitted or top-dose-only effect; inactive = flat fitted curve, though single readings scatter. Potencies of inconclusive entries are left out as doubtful fits.

target: Beta-lactamase (Escherichia coli (strain K12)) (UniProt P00811); assay: qHTS Inhibitors of AmpC Beta-Lactamase (assay with detergent); details: AmpC hydrolysis of nitrocefin, absorbance 480 nm, 0.01% Triton; series mostly up to 114 µM; also: nearly all actives have a fitted effect of over 25% in size
Chain of UniProt P00811 (P00811 whole entry, looked up): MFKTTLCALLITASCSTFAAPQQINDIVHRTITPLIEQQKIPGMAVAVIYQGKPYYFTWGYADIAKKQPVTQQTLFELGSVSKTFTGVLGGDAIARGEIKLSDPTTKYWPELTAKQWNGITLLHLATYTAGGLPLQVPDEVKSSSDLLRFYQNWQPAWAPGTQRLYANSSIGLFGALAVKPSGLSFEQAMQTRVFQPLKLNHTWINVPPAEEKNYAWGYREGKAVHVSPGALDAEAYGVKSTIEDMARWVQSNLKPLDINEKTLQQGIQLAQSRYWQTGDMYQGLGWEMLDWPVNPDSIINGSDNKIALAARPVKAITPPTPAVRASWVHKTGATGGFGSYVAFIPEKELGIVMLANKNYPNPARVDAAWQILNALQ
Procedure, shortened: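 AmpC (5.3 nM in the dispensed reagent) in 20 mM phosphate pH 7.0 with 0.01% (detergent screen) or 0.0001% Triton X-100 was preincubated with compounds for 15 min at room temperature. Nitrocefin was then added from an 800 uM solution, and hydrolysis was followed at 480 nm.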
Potency is read from the fitted curve at half-maximal effect; tags tell the direction and shape of the fitted curve.

| SMILES | Potency |
| --- | --- |
| CS(=O)(=O)N(Cc1ccccc1)c1ccc(C(=O)Nc2ccccc2C(=O)O)cc1 | inconclusive [inhibitor, full curve] |
| NNC(=O)[C@@H]1C[C@@H]1c1ccccc1 | inconclusive [inhibitor, full curve, poor fit] |
| CC(=O)Nc1ccc(/C(C)=N/Nc2nc(Nc3ccccc3)nc(N3CCOCC3)n2)cc1 | inactive |
| CCOC(=O)c1cc(S(=O)(=O)N2CCN(c3ccc(C(C)=O)cc3)CC2)[nH]n1 | inactive |
| Cc1nnc(NC(=O)c2ccc(-c3ccc([N+](=O)[O-])cc3)o2)s1 | inconclusive [inhibitor, full curve] |
| Cc1cc(=O)[nH]c(N2CCCNCC2)n1 | inconclusive [inhibitor, partial curve] |
| CS(=O)(=O)Cc1ccc(C(=O)NC2CCN(Cc3ccccc3)C2)cc1 (stereo not drawn) | inactive |
| CCC(C)(C)NC(=O)COc1ccc(C(=O)c2ccccc2)cc1 | inactive |
| O=C(CN1c2cccc3cccc(c23)S1(=O)=O)NCc1ccc2c(c1)OCO2 | inconclusive [inhibitor, full curve, poor fit] |
| COc1ccc(-c2nnc(SCC(=O)N3CCCCC3)o2)c(OC)c1 | inconclusive [inhibitor, full curve, poor fit] |
| COc1ccc(CNC(=O)CSc2nc(-c3ccc(OC)c(OC)c3)cc(C(F)(F)F)n2)cc1 | inactive |
| CC(O)CN1C(=O)C(CC(=O)Nc2ccc(Cl)cc2)SC1=Nc1ccccc1 (stereo not drawn) | inactive |
| Cc1ccc(S(=O)(=O)N2CCCCC2)cc1NC(=O)c1cccs1 | inconclusive [inhibitor, single point] |
| Clc1ccc(C2=NOC(c3nnc(-c4ccccc4)o3)C2)cc1 (stereo not drawn) | inactive |
| CCOc1ccc(C2C(=O)N(C3CCCCCC3)CC(=O)N2CCc2ccc(OC)c(OC)c2)cc1OC (stereo not drawn) | inactive |
| COc1cccc(-n2c(SCC(=O)NCCc3ccccc3)nnc2-c2ccoc2C)c1 | inconclusive [inhibitor, partial curve, poor fit] |
| C=CCNC(=O)COC(=O)/C=C/c1cccs1 | inconclusive [inhibitor, single point] |
| O=C(Oc1ccc(Cl)c2ccccc12)N1CCCCC1 | inactive |
| CCC1(c2ccc(Cl)cc2)NC(=O)N(Cc2ccc(C(=O)OC)cc2)C1=O (stereo not drawn) | inactive |
| CC(C)OC(=O)/C(=C\c1cccc2ccccc12)NC(=O)c1ccccc1 | inconclusive [inhibitor, full curve, poor fit] |
| Cc1ccc(NC(=O)CN2C(=O)NC3(CCC(C)CC3)C2=O)c(Cl)c1 (stereo not drawn) | inconclusive [inhibitor, full curve, poor fit] |
| Cc1ccc(SCc2cc(=O)n3ccsc3n2)c(C)c1 | inactive |
| Cc1ccc(OCCC(=O)N(CCC(C)C)c2c(N)n(Cc3ccccc3)c(=O)[nH]c2=O)cc1 | inconclusive [inhibitor, partial curve] |

| SMILES | Potency |
| --- | --- |
| CCC(=O)Nc1nnc(-c2ccc(OC)cc2)o1 | inconclusive [inhibitor, full curve, poor fit] |
| Cc1ccc(SCC(=O)Nc2nnc(C(C)(C)C)s2)cc1 | inconclusive [inhibitor, partial curve, poor fit] |
| COc1cc(-c2nnc(NC(=O)c3ccco3)o2)cc(OC)c1OC | inconclusive [inhibitor, partial curve, poor fit] |
| CCOc1ccc(NS(=O)(=O)c2ccc(C(=O)NCC(c3ccco3)N3CCCC3)cc2)cc1 (stereo not drawn) | inconclusive [inhibitor, full curve, poor fit] |
| CCOC(=O)C1=C(O)/C(=C/c2ccc(OCC(=O)O)c(OCC)c2)SC1=Nc1ccc(OC)cc1 | inconclusive [inhibitor, partial curve, poor fit] |
| CCC(OC(=O)c1nsc(Cl)c1Cl)C(=O)NCCc1ccccc1 (stereo not drawn) | inactive |
| CC1CCCCC1NC(=O)C1CCCN1S(=O)(=O)c1cccc2nsnc12 (stereo not drawn) | inconclusive [inhibitor, partial curve, poor fit] |
| CCN(Cc1ccccc1)S(=O)(=O)c1ccc(C(=O)N(CCCN(C)C)c2nc3cc(C)cc(C)c3s2)cc1 | inactive |
| O=C(Cn1cnc2c(oc3ccccc32)c1=O)Nc1ccc(F)cc1F | inactive |
| COc1ccc(C2=NOC(Cn3nc(C(=O)NCc4cccc(C(F)(F)F)c4)cc3-c3ccccc3)C2)cc1 (stereo not drawn) | inactive |
| FC(F)(F)c1cc(-c2ccccc2)nc(NC2CCCC2)n1 | inconclusive [inhibitor, full curve, poor fit] |
| CCOC(=O)N1CCN(C(=O)CSc2nnc(-c3cccs3)o2)CC1 | inconclusive [inhibitor, partial curve, poor fit] |
| Oc1c(CNc2ccccc2)cc(COCc2ccccc2)c2cccnc12 | inconclusive [inhibitor, partial curve, poor fit] |
| O=C(OCc1nc2ccccc2[nH]1)C1CCCCC1 | inconclusive [inhibitor, full curve, poor fit] |
| CCOC(=O)C1CCCCN1Cc1cc(OC)ccc1OC (stereo not drawn) | inconclusive [inhibitor, single point] |
| NS(=O)(=O)c1ccc(CCNC(=O)C2CCN(S(=O)(=O)c3cccc4cccnc34)CC2)cc1 | inconclusive [inhibitor, single point] |
| Cc1onc(-c2ccccc2)c1C(=O)Oc1ccccc1 | inconclusive [inhibitor, full curve, poor fit] |
| O=C(NCC(c1cccnc1)N1CCOCC1)Oc1ccccc1 (stereo not drawn) | inactive |
| Cc1ccc(CCNC(=O)CS(=O)Cc2nc(-c3ccccc3C)oc2C)cc1 (stereo not drawn) | inactive |
| COc1ccc(CN2CC(=O)N(c3cc(Cl)ccc3OC)C2=S)cc1OC | inconclusive [inhibitor, single point] |
| N#Cc1cnn(Cc2ccccc2)c1N | inconclusive [inhibitor, full curve] |
| O=C(C1CCCN(c2ncccn2)C1)N1CCc2ccccc21 (stereo not drawn) | inconclusive [inhibitor, full curve, poor fit] |
| COc1ccccc1CNC(=O)Cn1cc2c(n1)CCCC2 | inconclusive [inhibitor, full curve, poor fit] |

| SMILES | Potency |
| --- | --- |
| COn1c(-c2ccc(C)cc2)nc2ncccc21 | inactive |
| CCC(CC)C(=O)NCCc1ccc(S(N)(=O)=O)cc1 | inconclusive [inhibitor, full curve, poor fit] |
| O/N=C/c1cc(Br)cc(Br)c1OCc1ccccc1 | inconclusive [inhibitor, full curve] |
| COC(=O)CNC(=O)c1ccccc1F | inconclusive [inhibitor, full curve] |
| COc1cc(NC(=O)COc2ccc(F)cc2)nc(OC)n1 | inconclusive [inhibitor, partial curve, poor fit] |
| CCOC(=O)c1c(N)n(CCN2CCOCC2)c2nc3ccccc3nc12 | inconclusive [inhibitor, full curve, poor fit] |
| Cc1ccc(S(=O)(=O)CCC(=O)NC2CCCCC2)cc1 | inconclusive [inhibitor, partial curve] |
| COC(=O)c1ccc(Cl)cc1NC(=O)/C=C/c1ccc(C)o1 | inactive |
| O=C(COc1ccccc1)NCC(c1cccs1)N1CCOCC1 (stereo not drawn) | inconclusive [inhibitor, partial curve] |
| CCN(CC)S(=O)(=O)c1cccc(C(=O)N[C@H](C(=O)Nc2nc3ccc(F)cc3s2)C(C)C)c1 | inconclusive [inhibitor, partial curve, poor fit] |
| Cc1sc2cc(-c3cccc([N+](=O)[O-])c3)c(-c3cccc([N+](=O)[O-])c3)c[n+]2c1C | inactive |
| Cc1c2ccccc2nc2c(F)c(NCCO)c(F)c(F)c12 | inconclusive [inhibitor, full curve, poor fit] |
| COc1ccc(OC)c(C(=O)CSc2nnnn2C)c1 | inconclusive [inhibitor, partial curve, poor fit] |
| CCN(Cc1ccccc1)C(=O)CCc1nc(-c2ccc(C)cc2)no1 | inconclusive [inhibitor, single point] |
| CC(=O)OCCn1c(=O)c2cc3c(=O)n(CCOC(C)=O)c(=O)c3cc2c1=O | inconclusive [inhibitor, partial curve] |
| COc1ccccc1N1C(=O)N(C(C)=O)C2C1Nc1ccccc1N2C (stereo not drawn) | inconclusive [inhibitor, full curve, poor fit] |
| Cc1cc(C)c(C)c(S(=O)(=O)N2CCN(C(=O)C3CSC4(C)CCC(=O)N34)CC2)c1C (stereo not drawn) | inactive |
| CC1=NN(C(=O)c2ccc(C)o2)C(O)(c2ccccc2)C1 (stereo not drawn) | inactive |
| CCOC(=O)C1CCCN(C(=O)c2ccc(NC(=O)CC3SC(N4CCCC4)=NC3=O)cc2)C1 (stereo not drawn) | inconclusive [inhibitor, full curve, poor fit] |
| CN1C(=O)/C(=C/c2ccccc2OCc2ccccc2F)NC1=S | inconclusive [inhibitor, full curve] |
| CCOc1ccc(N(CC(=O)Nc2nccs2)S(=O)(=O)c2c(C)noc2C)cc1 | inconclusive [inhibitor, full curve, poor fit] |
| Cc1ccc(OCCn2c(CCNC(=O)C(C)C)nc3ccccc32)cc1 | inconclusive [inhibitor, partial curve, poor fit] |
